Test results from patent publication US20240124575A1 (SIMCERE ZAIMING PHARMACEUTICAL, published 2024).

T1: murine CD33-His protein (murine, UniProt Q63994 18-240, limits assumed)
T1 construct: also called murine CD33 protein
T1 sequence (looked up): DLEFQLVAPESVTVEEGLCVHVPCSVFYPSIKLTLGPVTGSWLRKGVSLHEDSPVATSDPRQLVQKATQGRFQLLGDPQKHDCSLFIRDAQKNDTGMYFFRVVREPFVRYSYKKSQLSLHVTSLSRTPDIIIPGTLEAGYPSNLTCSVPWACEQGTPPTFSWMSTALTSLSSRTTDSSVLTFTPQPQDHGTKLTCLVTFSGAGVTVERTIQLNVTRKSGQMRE

B1: S006-NB146-173-H5 (Fc fusion)
chain: EVQLVESGGGLVQPGGSLRLSCAASGSTLSLHSMGWYRQAPGKQRELVAGISRDGDSNYLSSLAGRFTISRDGTKNSLYLQMNSLRAEDTAVYYCNARTSPWSAALWGQGTMVTVSS[letters of human IgG1 Fc with changes left out]
notes: also called humanized VHH-Fc
B2: S006-NB146-173-H3 (Fc fusion)
chain: EVQLVESGGGLVQPGGSLRLSCAASGSTFSLHSMGWYRQAPGKQRELVAGISRDGDSNYLSSLAGRFTISRDNAKNSLYLQMNSLRAEDTAVYYCNARTSPWSAALWGQGTMVTVSS[letters of human IgG1 Fc with changes left out]
notes: also called humanized VHH-Fc
B3: S006-NB146-173-H4 (Fc fusion)
chain: EVQLVESGGGLVQPGGSLRLSCAASGSTLSLHSMGWYRQAPGKQRELVAGISRDGDSNYLSSLAGRFTISRDNAKNSLYLQMNSLRAEDTAVYYCNARTSPWSAALWGQGTMVTVSS[letters of human IgG1 Fc with changes left out]
notes: also called humanized VHH-Fc
B4: S006-NB146-173-H6 (Fc fusion)
chain: EVQLVESGGGLVQPGGSLRLSCAASGSTLSLHSMGWYRQAPGKQRELVAGISRDGDSNYLSSLAGRFTISRDGTKNSVYLQMNSLRAEDTAVYYCNARTSPWSAALWGQGTMVTVSS[letters of human IgG1 Fc with changes left out]
notes: also called humanized VHH-Fc
B5: SGN-33 scFv-hIgG1Fc (Fc fusion)
scFv: QVQLVQSGAEVKKPGASVKVSCKASGYTFTNYDINWVRQAPGQGLEWIGWIYPGDGSTKYNEKFKAKATLTADTSTSTAYMELRSLRSDDTAVYYCASGYEDAMDYWGQGTTVTVSSGGGGSGGGGSGGGGSDIQMTQSPSSLSASVGDRVTINCKASQDINSYLSWFQQKPGKAPKTLIYRANRLVDGVPSRFSGSGSGQDYTLTISSLQPEDFATYYCLQYDEFPLTFGGGTKVEIK[letters of human IgG1 Fc with changes left out]
notes: control antibody as scFv-hFc; variable regions from U.S. Pat. No. 9,453,046
B6: S006-NB146-173 (Fc fusion)
chain: QVQLVESGGGLVQAGGSLRLSCAASGSTLSLHSMGWYRQAAGRQRELVAGISRDGDSNYLSSLAGRFFISRDGTKNTVYLQMTSLKPEDTAVYYCNARTSPWSAALWGQGTQVTVSS[letters of human IgG1 Fc with changes left out]
notes: tested as VHH-Fc (VHH with human IgG1 hinge and Fc)
B7: S006-NB147-220 (Fc fusion)
chain: QLQLVESGGGMVQPGGSLRLSCAASGFTLDYYAIGWFRQAPGKEREGVSCINSGDSSTYYADSVKGRFTISRDNAENTVYLQMNSLKPEDTAVYYCATVDTLIVAGNLEECRYDMDYWGKGTLVTVSS[letters of human IgG1 Fc with changes left out]
notes: as for B6
B8: S006-NB146-173-H4 (Fc fusion)
chain: EVQLVESGGGLVQPGGSLRLSCAASGSTLSLHSMGWYRQAPGKQRELVAGISRDGDSNYLSSLAGRFTISRDNAKNSLYLQMNSLRAEDTAVYYCNARTSPWSAALWGQGTMVTVSS[letters of human IgG1 Fc with changes left out]
B9: S006-NB146-173-H2 (Fc fusion)
chain: EVQLVESGGGLVQPGGSLRLSCAASGFTFSLHSMGWYRQAPGKQRELVAGISRDGDSNYLSSLAGRFTISRDNAKNSLYLQMNSLRAEDTAVYYCNARTSPWSAALWGQGTMVTVSS[letters of human IgG1 Fc with changes left out]
B10: S006-NB146-173-H3 (Fc fusion)
chain: EVQLVESGGGLVQPGGSLRLSCAASGSTFSLHSMGWYRQAPGKQRELVAGISRDGDSNYLSSLAGRFTISRDNAKNSLYLQMNSLRAEDTAVYYCNARTSPWSAALWGQGTMVTVSS[letters of human IgG1 Fc with changes left out]

How the values were obtained:
human CD33-V-his = biological target: T2, human CD33-V-his (human, UniProt P20138 18-144); experiment: ELISA on coated human CD33-V-his
Chain of human CD33-V-his (P20138 other isoform, or with tags, fused parts or gaps limits assumed): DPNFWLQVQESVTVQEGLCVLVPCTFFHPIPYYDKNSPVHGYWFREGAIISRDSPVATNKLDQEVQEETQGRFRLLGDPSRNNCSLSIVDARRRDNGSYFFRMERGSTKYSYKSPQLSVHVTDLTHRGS
T2 construct: expressed in HEK293E; also called hCD33-V-his; human CD33 protein V-domain; not shown: His tag

human CD33-C2-his = biological target: T3, human CD33-C2-his (human, UniProt P20138 136-260); experiment: ELISA on coated human CD33-C2-his
Chain of human CD33-C2-his (P20138 other isoform, or with tags, fused parts or gaps limits assumed): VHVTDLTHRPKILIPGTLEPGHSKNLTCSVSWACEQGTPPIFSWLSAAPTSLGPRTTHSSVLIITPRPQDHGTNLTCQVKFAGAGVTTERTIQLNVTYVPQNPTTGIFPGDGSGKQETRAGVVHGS
T3 construct: expressed in HEK293E; also called hCD33-C2-his; human CD33 protein C2-domain; not shown: His tag

murine CD33-His protein = biological target: T1, murine CD33-His protein; experiment: ELISA on coated murine CD33-his
[1] = biological target: T4, human CD33 on U937 cells (endogenous) (human, UniProt P20138); experiment: FACS, U937 cells
T4 construct: whole, on cells

human CD33-his protein [2] = biological target: T5, human CD33-his protein (human, UniProt P20138 18-259); experiment: competition ELISA, coated human CD33-his, vs Biotin-C33B904 at EC80; antibody 1.95 nM
T5 construct: range 18-259; bought protein; also called hCD33-his; recombinant human CD33-his; not shown: His tag

human CD33-his protein [3] = biological target: T5, human CD33-his protein; experiment: competition ELISA, coated human CD33-his, vs Biotin-C33B904 at EC80; antibody 15.63 nM
T5 sequence (P20138 18-259 limits assumed): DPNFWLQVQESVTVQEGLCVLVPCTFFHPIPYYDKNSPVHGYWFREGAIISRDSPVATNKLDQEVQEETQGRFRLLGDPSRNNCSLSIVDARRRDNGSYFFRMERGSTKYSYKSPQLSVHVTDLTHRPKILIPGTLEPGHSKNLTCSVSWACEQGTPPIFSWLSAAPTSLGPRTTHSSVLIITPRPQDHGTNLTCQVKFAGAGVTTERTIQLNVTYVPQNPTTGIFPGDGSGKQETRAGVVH

human CD33-his protein [4] = biological target: T5, human CD33-his protein; experiment: as above; remark: listed apart in the source
human CD33-his protein [5] = biological target: T5, human CD33-his protein; experiment: competition ELISA, coated human CD33-his, vs Biotin-C33B904 at EC80; antibody 62.50 nM
human CD33-his protein [6] = biological target: T5, human CD33-his protein; experiment: competition ELISA, coated human CD33-his, vs Biotin-C33B904 at EC80; antibody 7.81 nM
human CD33-his protein [7] = biological target: T5, human CD33-his protein; experiment: competition ELISA, coated human CD33-his, vs Biotin-C33B904 at EC80; antibody 62.50 nM; remark: listed apart in the source
human CD33-his protein [8] = biological target: T5, human CD33-his protein; experiment: competition ELISA, coated human CD33-his, vs Biotin-C33B904 at EC80; antibody 31.25 nM
human CD33-his protein [9] = biological target: T5, human CD33-his protein; experiment: competition ELISA, coated human CD33-his, vs Biotin-C33B904 at EC80; antibody 0.49 nM
human CD33-his protein [10] = biological target: T5, human CD33-his protein; experiment: competition ELISA, coated human CD33-his, vs Biotin-C33B904 at EC80; antibody 250.00 nM
human CD33-his protein [11] = biological target: T5, human CD33-his protein; experiment: competition ELISA, coated human CD33-his, vs Biotin-C33B904 at EC80; antibody 125.00 nM
human CD33-his protein [12] = biological target: T5, human CD33-his protein; experiment: SPR (Biacore), antibody captured on Protein A chip, human CD33-his analyte
human CD33-his protein [13] = biological target: T5, human CD33-his protein; experiment: competition ELISA, coated human CD33-his, vs Biotin-C33B904 at EC80; antibody 7.81 nM; remark: listed apart in the source
human CD33-his protein [14] = biological target: T5, human CD33-his protein; experiment: competition ELISA, coated human CD33-his, vs Biotin-C33B904 at EC80; antibody 500 nM
human CD33-his protein [15] = biological target: T5, human CD33-his protein; experiment: competition ELISA, coated human CD33-his, vs Biotin-C33B904 at EC80; antibody 31.25 nM; remark: listed apart in the source
human CD33-his protein [16] = biological target: T5, human CD33-his protein; experiment: competition ELISA, coated human CD33-his, vs Biotin-C33B904 at EC80; antibody 125.00 nM; remark: listed apart in the source
human CD33-his protein [17] = biological target: T5, human CD33-his protein; experiment: competition ELISA, coated human CD33-his, vs Biotin-C33B904 at EC80; antibody 1.95 nM; remark: listed apart in the source
human CD33-his protein [18] = biological target: T5, human CD33-his protein; experiment: competition ELISA, coated human CD33-his, vs Biotin-C33B904 at EC80; antibody 0 nM (no competitor)
human CD33-his protein [19] = biological target: T5, human CD33-his protein; experiment: competition ELISA, coated human CD33-his, vs Biotin-C33B904 at EC80; antibody 250.00 nM; remark: listed apart in the source
human CD33-his protein [20] = biological target: T5, human CD33-his protein; experiment: competition ELISA, coated human CD33-his, vs Biotin-C33B904 at EC80; antibody 3.91 nM
human CD33-his protein [21] = biological target: T5, human CD33-his protein; experiment: as above; remark: listed apart in the source
human CD33-his protein [22] = biological target: T5, human CD33-his protein; experiment: competition ELISA, coated human CD33-his, vs Biotin-C33B904 at EC80; antibody 0.49 nM; remark: listed apart in the source
human CD33-his protein [23] = biological target: T5, human CD33-his protein; experiment: competition ELISA, coated human CD33-his, vs Biotin-C33B904 at EC80; antibody 500 nM; remark: listed apart in the source
human CD33-his protein [24] = biological target: T5, human CD33-his protein; experiment: competition ELISA, coated human CD33-his, vs Biotin-C33B904 at EC80; antibody 0.98 nM
human CD33-his protein [25] = biological target: T5, human CD33-his protein; experiment: as above; remark: listed apart in the source
human CD33-his protein [26] = biological target: T5, human CD33-his protein; experiment: competition ELISA, coated human CD33-his, vs Biotin-C33B904 at EC80; antibody 0 nM (no competitor); remark: listed apart in the source
[27] = biological target: T6, human CD33-C2-his protein (human, UniProt P20138 136-260); experiment: ELISA on coated human CD33-C2-his
T6 construct: also called hCD33-C2-his; Human CD33 protein C2-domain; not shown: His tag

Binder	binding result (human CD33-V-his)	binding result (murine CD33-His protein)	OD450 (Biotin-C33B904 signal) (human CD33-his protein [4])	OD450 (Biotin-C33B904 signal) (human CD33-his protein [5])	OD450 (Biotin-C33B904 signal) (human CD33-his protein [11])	OD450 (Biotin-C33B904 signal) (human CD33-his protein [13])	OD450 (Biotin-C33B904 signal) (human CD33-his protein [14])	OD450 (Biotin-C33B904 signal) (human CD33-his protein [15])	OD450 (Biotin-C33B904 signal) (human CD33-his protein [17])	OD450 (Biotin-C33B904 signal) (human CD33-his protein [18])	OD450 (Biotin-C33B904 signal) (human CD33-his protein [19])	OD450 (Biotin-C33B904 signal) (human CD33-his protein [20])	OD450 (Biotin-C33B904 signal) (human CD33-his protein [22])	OD450 (Biotin-C33B904 signal) (human CD33-his protein [25])	binding result [27]	further results
B1	no binding (tested: 100 nM)	no binding (tested: 100 nM)														EC50 (read off the curve) (human CD33-C2-his): ~3 nM
B2	no binding (tested: 100 nM)	no binding (tested: 100 nM)														binding result (human CD33-C2-his): binds; binding result [1]: binds
B3	no binding (tested: 100 nM)	no binding (tested: 100 nM)														binding result (human CD33-C2-his): binds; binding result [1]: binds
B4	no binding (tested: 100 nM)	no binding (tested: 100 nM)														EC50 (read off the curve) (human CD33-C2-his): ~0.4 nM
B5			2.08	2.06	2.09	2.13	2.1	2.05	2.1	2.27	2.07	2.2	2.19	2.02		OD450 (Biotin-C33B904 signal) (human CD33-his protein [2]): 2.23; OD450 (Biotin-C33B904 signal) (human CD33-his protein [3]): 2.35; OD450 (Biotin-C33B904 signal) (human CD33-his protein [6]): 2.25; OD450 (Biotin-C33B904 signal) (human CD33-his protein [7]): 2.3; OD450 (Biotin-C33B904 signal) (human CD33-his protein [8]): 2.27; OD450 (Biotin-C33B904 signal) (human CD33-his protein [9]): 2.23; OD450 (Biotin-C33B904 signal) (human CD33-his protein [10]): 2.31; Kd (human CD33-his protein [12]): 7.93 nM; koff (human CD33-his protein [12]): 0.00557 s⁻¹; kon (human CD33-his protein [12]): 702000 M⁻¹ s⁻¹; OD450 (Biotin-C33B904 signal) (human CD33-his protein [16]): 2.24; OD450 (Biotin-C33B904 signal) (human CD33-his protein [21]): 2.22; OD450 (Biotin-C33B904 signal) (human CD33-his protein [23]): 2.39; OD450 (Biotin-C33B904 signal) (human CD33-his protein [24]): 2.23; OD450 (Biotin-C33B904 signal) (human CD33-his protein [26]): 2.3
B6			2.1	1.52	1.14	2.38	0.5	1.88	2.47	2.5	0.76	2.47	2.42	2.36		Kd (human CD33-his protein [12]): 9.68 nM; koff (human CD33-his protein [12]): 0.00179 s⁻¹; kon (human CD33-his protein [12]): 185000 M⁻¹ s⁻¹
B7			1.96	1.29	1.07	2.14	0.46	1.67	2.27	2.37	0.69	2.33	2.3	2.29		
B8															binds	
B9															binds	
B10															binds	
